We go through 18 compounds from the supplement of paper PMC9446081.

The whole screen tested about 39,000 compounds, of which about 220 (0.56%) showed activity. This is one part of the list.
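Also: static incubation at 37 °C against the wild-type strain, values averaged over two biological replicates.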

The subject of this assay is Escherichia coli K-12 BW25113. The experiment in a line: relative growth (OD600 normalised to plate interquartile mean) (fraction); higher = less growth inhibition, active = 0.2 or less. The following applies: 50 µM; LB; incubation time: overnight (16-24 h).
For `CN1CCC(=C2c3ccccc3C=Cc3ccccc32)CC1.Cl`, the relative growth was inactive: 1.1.

For the compound `C[C@H](CO)N1C[C@H](C)[C@H](CN(C)Cc2ccc(-c3ccccc3)cc2)Oc2ccc(NC(=O)Nc3ccccc3)cc2CC1=O`, the relative growth was inactive: 1.02.

As for `NCCCC[C@@H](N)C(=O)N[C@@H](Cc1ccc(O)cc1)C(=O)N[C@@H](CCCCN)C(=O)O`, the relative growth is inactive: 0.993.

As for `O=C(CCCCCCC(=O)Nc1ccccc1O)N/N=C/[C@H](O)[C@@H](O)[C@H](O)[C@H](O)CO[C@H]1O[C@H](CO)[C@H](O)[C@H](O)[C@H]1O`, the relative growth was inactive: 0.987.

For the compound `COc1ccc(S(=O)(=O)Nc2cccc3c2O[C@@H](CN(C)S(=O)(=O)c2c(C)noc2C)[C@H](C)CN([C@@H](C)CO)C3=O)cc1`, the relative growth was inactive: 1.03.

As for `C[C@@H]1CN([C@H](C)CO)C(=O)CCCn2nncc2CO[C@H]1CN(C)S(=O)(=O)c1ccccc1C#N`, the relative growth was inactive: 0.977.

`Cn1cncc1C(=O)O`: the relative growth is inactive: 1.02.

In the case of `CC(C)NC(=O)Nc1ccc2c(c1)C(=O)N([C@H](C)CO)C[C@H](C)[C@@H](CN(C)C(=O)Nc1cccc3ccccc13)OCCCC[C@H](C)O2`, the relative growth is inactive: 0.985.

As for `NS(=O)(=O)c1cc2c(cc1C(F)(F)F)NCNS2(=O)=O`, the relative growth was inactive: 1.15.

Take `CC(=O)c1c(O)cc(O)cc1CC(=O)O`: the relative growth was inactive: 1.

As for `C[C@H](CO)N1C[C@H](C)[C@H](CN(C)S(=O)(=O)c2ccc(Cl)cc2)OCCCC[C@H](C)Oc2ccc(NC(=O)c3ccncc3)cc2C1=O`, the relative growth was inactive: 1.02.

Turning to `CN(Cc1ccc(C(C)(C)C)cc1)Cc1cccc2ccccc12.Cl`, the relative growth was inactive: 1.09.

Regarding `C[C@@H]1CN([C@H](C)CO)C(=O)Cc2cc(NC(=O)CCCCCC(=O)Nc3ccccc3N)ccc2O[C@@H]1CN(C)CC1CCCCC1`, the relative growth was inactive: 0.95.

For `C[C@@H]1CN([C@@H](C)CO)C(=O)c2cc(NC(=O)c3ccccc3)ccc2O[C@@H](C)CCCCO[C@@H]1CN(C)C(=O)Cc1ccccc1`, the relative growth is inactive: 0.982.

Regarding `COc1ccc(S(=O)(=O)N2C[C@H](O)COC[C@@H]3O[C@H](CC(=O)NCCN4CCCCC4)CC[C@H]32)cc1`, the relative growth is inactive: 0.938.

As to `C[C@H]1CCCCO[C@@H](CN(C)Cc2ccc(C(F)(F)F)cc2)[C@@H](C)CN([C@@H](C)CO)C(=O)c2cc(NC(=O)Nc3ccc4c(c3)OCO4)ccc2O1`, the relative growth was inactive: 0.915.

Consider `C[C@@H]1CN([C@H](C)CO)S(=O)(=O)c2ccc(C#CC3(O)CCCC3)cc2O[C@H]1CN(C)C(=O)Nc1ccc(F)cc1`, for which the relative growth was inactive: 0.981.

For the compound `COc1ccc2c3c([nH]c2c1)[C@@H](CO)N(CC1CCCC1)C[C@]13CCN(CC1)C(=O)Nc1cccc(c1)F`, the relative growth was inactive: 1.02.
